{"source": "PubChem BioAssay AID1460", "about": "(National Center for Advancing Translational Sciences (NCATS), 2008)", "note": "Values joined by “and” are separate entries in the source; they are usually repeats but may differ in a detail not shown here. Equal entries are not always repeated. In all, about 270,000 compounds went through this assay and about 5,800 (2.1%) were called active. This list was built around the results that the source calls inconclusive (neither active nor inactive); the mix of calls is not that of the screen. Calls follow the shape of the dose curve; as a rule, active = well fitted inhibition curve with a large enough effect; inconclusive = small, poorly fitted or top-dose-only effect; inactive = flat fitted curve, though single readings scatter. Potencies beside an inconclusive call are fits to weak or partial responses and may not hold up. % is scaled to controls: 0 for no effect and ±100 for the full control effect; potency is read from the fitted curve at half-maximal effect; tags tell the direction and shape of the fitted curve."}
{"target": "Microtubule-associated protein tau (Homo sapiens) (UniProt P10636)", "sequence (P10636 whole entry, looked up)": "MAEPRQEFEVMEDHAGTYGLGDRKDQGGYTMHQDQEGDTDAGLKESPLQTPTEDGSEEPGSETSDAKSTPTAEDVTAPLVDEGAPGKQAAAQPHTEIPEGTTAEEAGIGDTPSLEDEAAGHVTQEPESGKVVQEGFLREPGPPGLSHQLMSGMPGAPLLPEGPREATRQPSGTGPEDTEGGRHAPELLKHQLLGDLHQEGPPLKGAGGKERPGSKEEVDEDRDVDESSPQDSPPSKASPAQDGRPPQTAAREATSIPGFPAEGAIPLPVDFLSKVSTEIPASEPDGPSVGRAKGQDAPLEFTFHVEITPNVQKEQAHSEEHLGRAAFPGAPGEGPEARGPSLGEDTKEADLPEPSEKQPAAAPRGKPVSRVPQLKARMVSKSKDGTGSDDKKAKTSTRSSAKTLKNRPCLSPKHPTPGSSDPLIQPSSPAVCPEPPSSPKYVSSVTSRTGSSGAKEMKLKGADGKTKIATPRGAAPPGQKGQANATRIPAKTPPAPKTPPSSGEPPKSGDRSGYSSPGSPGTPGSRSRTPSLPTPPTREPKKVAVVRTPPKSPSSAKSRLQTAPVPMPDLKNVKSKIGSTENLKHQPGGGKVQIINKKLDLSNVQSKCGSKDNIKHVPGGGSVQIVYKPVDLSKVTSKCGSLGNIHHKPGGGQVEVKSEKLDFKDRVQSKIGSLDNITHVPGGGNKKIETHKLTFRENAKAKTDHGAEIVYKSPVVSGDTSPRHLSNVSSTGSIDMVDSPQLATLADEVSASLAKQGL", "test": "qHTS for Inhibitors of Tau Fibril Formation, Thioflavin T Binding; also: nearly all actives have a fitted effect of over 55% in size", "conditions": "recombinant tau K18 P301L, heparin-induced fibrillization, ThT fluorescence; series mostly up to 57.4 µM; activity, negative = inhibition: at the top concentration", "in_short": "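Using a mix of unlabeled (15 uM) and Alexa 594-labeled (0.24 uM) tau K18 P301L, heparin-triggered fibrillization over 6 hr at 37 C was scored by ThT fluorescence.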"}
{"smiles": "CC(=O)Oc1ccc(/C=C/c2cc(OC(C)=O)cc(OC(C)=O)c2)cc1", "Potency": "inconclusive: 1.78 µM [inhibitor, full curve]"}
{"smiles": "CCOC(=O)C1CCN(/C=C2/C(=O)NC(=O)N(Cc3ccco3)C2=O)CC1", "Potency": "inconclusive: 17.8 µM [inhibitor, partial curve]"}
{"smiles": "COc1cc(CN2CCc3nc(N4CCN(c5ccccn5)CC4)ncc3C2)cc(OC)c1OC", "Potency": "inconclusive: 17.8 µM [inhibitor, partial curve]"}
{"smiles": "Oc1cccc2cccnc12", "activity, negative = inhibition": "inactive: -10.5%"}
{"smiles": "COc1ccc2c(c1O)-c1cccc3c1C(C2)N(C)CC3", "note": "(centres undefined)", "Potency": "inconclusive: 12.6 µM [inhibitor, partial curve, poor fit]"}
{"smiles": "CN(C)c1ccc(/C=C2\\CC3C4CC=C5CC(O)CCC5(C)C4CCC3(C)C2=O)cc1", "note": "(centres undefined)", "Potency": "inconclusive: 3.55 µM [inhibitor, single point]"}
{"smiles": "CN1[C@@H]2CC[C@H]1CC(O[C@@H](c1ccccc1)c1ccc(Cl)cc1)C2", "note": "(some centres undefined)", "Potency": "inconclusive: 22.4 µM [inhibitor, partial curve]"}
{"smiles": "O=c1[nH]c(=S)n(C2CC2)c(O)c1/C=N/Nc1ccccc1", "Potency": "active: 11.2 µM"}
{"smiles": "CCOP(=O)(OCC)C(NC(=O)Cc1ccccc1)C(Cl)(Cl)Cl", "note": "(centres undefined)", "activity, negative = inhibition": "inactive: -7.22%"}
{"smiles": "CN1C(=O)N(C)C(=O)C2(Cc3ccccc3N3CCOCC32)C1=O", "note": "(centres undefined)", "activity, negative = inhibition": "inactive: -10.1%"}
{"smiles": "CN(CC1COc2ccccc2O1)c1nc(-c2cccnc2)nc2ccccc12", "note": "(centres undefined)", "Potency": "inconclusive: 28.2 µM [inhibitor, single point]"}
{"smiles": "O=C(CCCOc1ccc(Cl)cc1Cl)N1CCC2(CC1)OCCO2", "Potency": "inconclusive: 17.8 µM [inhibitor, partial curve]"}
{"smiles": "COc1ccc(C(CNC(=O)Cc2ccc(Cl)c(Cl)c2)N(C)C)cc1", "note": "(centres undefined)", "activity, negative = inhibition": "inactive: -6.4%"}
{"smiles": "Cc1cc(C=C(C#N)C#N)ccc1N1CCCC1", "Potency": "inconclusive: 14.1 µM [inhibitor, partial curve]"}
{"smiles": "BrCC1C[n+]2c(SCc3ccccc3)nc3sc4c(c3c2O1)CCCC4", "note": "(centres undefined)", "Potency": "inconclusive: 5.01 µM [inhibitor, partial curve, poor fit]"}
{"smiles": "CCCCc1ccc(C(=O)O)nc1", "Potency": "inactive and inconclusive: 7.94 µM [inhibitor, partial curve, poor fit]"}
{"smiles": "C[C@@H]1CC[C@H]2[C@@H](C)C(=O)O[C@@H]3OC4(C)CC[C@@H]1[C@]32OO4", "activity, negative = inhibition": "inactive: -5.67%"}
{"smiles": "O=C(Nc1nnc(SCc2ccccc2Cl)s1)C1COc2ccccc2O1", "note": "(centres undefined)", "Potency": "inconclusive: 12.6 µM [inhibitor, partial curve]"}
{"smiles": "O=C1NC(=O)N(c2cccc(F)c2)C(=O)/C1=C/c1ccc(N2CCOCC2)cc1", "Potency": "inconclusive: 14.1 µM [inhibitor, partial curve]"}
{"smiles": "CCOP(=O)(OCC)C(NC(=O)NC)C(N)=O", "note": "(centres undefined)", "Potency": "inconclusive: 11.2 µM [inhibitor, partial curve, poor fit]"}
{"smiles": "CCc1ccc(-c2nn(Cc3ccccc3)cc2C=O)cc1", "Potency": "inconclusive: 22.4 µM [inhibitor, single point]"}
{"smiles": "Oc1ccc2c3c1O[C@H]1c4[nH]c5c(c4C[C@@]4(O)[C@@H](C2)N(CC2CC2)CC[C@]314)C[C@@]1(O)[C@H]2Cc3ccc(O)c4c3[C@@]1(CCN2CC1CC1)[C@H]5O4", "Potency": "inconclusive: 28.2 µM [inhibitor, partial curve]"}
{"smiles": "CC[C@]1(O)C(=O)OCc2c1cc1n(c2=O)Cc2cc3ccccc3nc2-1", "activity, negative = inhibition": "inactive: -4.8%"}
{"smiles": "Cc1cc(/C=C2/C(=O)NC(=O)N(Cc3ccco3)C2=O)c(C)n1-c1ccccc1", "Potency": "inconclusive: 28.2 µM [inhibitor, single point]"}
{"smiles": "CCCCN1C(=O)/C(=C/c2ccc(N(C)C)cc2)C(=O)N(Cc2ccco2)C1=O", "Potency": "inconclusive: 20 µM [inhibitor, partial curve]"}
{"smiles": "Nc1c(C(=O)Nc2cccc(Br)c2)sc2nc3c(cc12)N1CCC3CC1", "Potency": "inconclusive: 6.31 µM [inhibitor, partial curve]"}
{"smiles": "O=C(CCCCCCCCCCC(=O)NCc1cccnc1)NCc1cccnc1", "Potency": "inconclusive: 44.7 µM [inhibitor, single point]"}
{"smiles": "O=C(c1ccc(Cl)cc1)C1CCCN(Cc2ccon2)C1", "note": "(centres undefined)", "activity, negative = inhibition": "inactive: 6.17%"}
{"smiles": "O=C(NCc1ccccn1)c1ccccc1Cl", "activity, negative = inhibition": "inactive: -0.264%"}
{"smiles": "COc1ccc(CNc2oc(-c3cccc4ccccc34)nc2P(=O)(OC)OC)cc1", "Potency": "inconclusive: 35.5 µM [inhibitor, partial curve]"}
{"smiles": "COc1ccc(-n2[nH]c3c4c(ncc3c2=O)CCCCC4)cc1", "Potency": "inconclusive: 14.1 µM [inhibitor, partial curve]"}
{"smiles": "COP(=O)(OC)/C(C=O)=N/Nc1ccc([N+](=O)[O-])cc1", "Potency": "inconclusive: 20 µM [inhibitor, partial curve]"}
{"smiles": "C=C(C)[C@]12C[C@@H](C)[C@@]34OC(Cc5ccccc5)(O[C@@H]1[C@@H]3C=C(COC(=O)Cc1cc(I)c(O)c(OC)c1)C[C@]1(O)C(=O)C(C)=C[C@@H]41)O2", "Potency": "inconclusive: 7.08 µM [inhibitor, partial curve]"}
{"smiles": "CC1C(=O)OC2O[C@]3(C)CC[C@H]4C(C)CCC1[C@]24OO3", "note": "(some centres undefined)", "activity, negative = inhibition": "inactive: -2.77%"}
{"smiles": "N#Cc1c(/N=C/c2c(O)n(Cc3ccco3)c(=O)[nH]c2=O)sc2c1CCCC2", "Potency": "active: 20 µM"}
{"smiles": "O=C(O)c1cccc2c1NC(c1cccc([N+](=O)[O-])c1)C1CC(Sc3ccccc3[N+](=O)[O-])C(Cl)C21", "note": "(centres undefined)", "Potency": "active: 31.6 µM"}
{"smiles": "Clc1ccc(N2CCN(Cc3ccccc3Cl)CC2)cc1", "Potency": "inconclusive: 0.316 µM [inhibitor, full curve, poor fit]"}
{"smiles": "O=c1[nH]c(=S)n(Cc2ccc(F)cc2)c(O)c1/C=N/N1CCCCCC1", "Potency": "inconclusive: 17.8 µM [inhibitor, partial curve]"}
{"smiles": "CN(C)/C=C1/C(=O)NC(=O)N(CCNc2ncc(C(F)(F)F)cc2Cl)C1=O", "Potency": "active: 15.8 µM"}
{"smiles": "Brc1ccc2[nH]cc(/C=N/N3CCCCC3)c2c1", "Potency": "inconclusive: 11.2 µM [inhibitor, partial curve]"}
{"smiles": "CCc1ccc2c(CN3CC=C(c4ccccc4)CC3)cc(=O)oc2c1", "Potency": "inconclusive: 28.2 µM [inhibitor, single point]"}
{"smiles": "CCOC(=O)c1cccc(NC2c3ccccc3C(=O)N2Cc2ccco2)c1", "note": "(centres undefined)", "Potency": "inconclusive: 8.91 µM [inhibitor, partial curve]"}
{"smiles": "CCN(CC)CCCN=Cc1c(O)n(CCc2ccc(OC)c(OC)c2)c(=O)[nH]c1=O", "activity, negative = inhibition": "inactive: -1.9%"}
{"smiles": "Cc1cccc2sc(NC(=O)c3cccn(Cc4ccccc4)c3=O)nc12", "activity, negative = inhibition": "inactive: -13.9%"}
{"smiles": "COc1ccc2[nH]cc(CCN)c2c1", "Potency": "inconclusive: 14.1 µM [inhibitor, partial curve]"}
{"smiles": "CCC(=Nc1ccc(OC)cc1OC)c1c(O)[nH]c(=O)[nH]c1=O", "activity, negative = inhibition": "inactive: -1.01%"}
{"smiles": "CCNC(=S)N(C)CCc1cc2c(c(OC)c1C=C1C(=O)N(C)C(=O)N(C)C1=O)OCO2", "Potency": "inconclusive: 1.41 µM [inhibitor, full curve]"}
{"smiles": "C[C@]12CCC3C(C=CC4=CC(=O)CC[C@]43C)C1CC[C@]2(O)CCC(=O)O", "note": "(some centres undefined)", "activity, negative = inhibition": "inactive: -5.76%"}
{"smiles": "COc1cc(/C=C2/C(=O)NC(=O)N(c3ccccc3)C2=O)ccc1O", "Potency": "inconclusive: 6.31 µM [inhibitor, partial curve]"}
{"smiles": "Cc1ccc(N=Nc2cc(C)ccc2N)cc1", "Potency": "active: 11.2 µM"}
{"smiles": "Fc1ccccc1CCNCc1cccc2ccccc12", "activity, negative = inhibition": "inactive: 11.1%"}
{"smiles": "CCC(C)n1c(O)c(/C=N/NC(=O)c2ccncc2)c(=O)[nH]c1=S", "note": "(centres undefined)", "Potency": "inconclusive: 28.2 µM [inhibitor, single point]"}
{"smiles": "COc1ccc(CN2C(=O)NC(=O)/C(=C\\c3ccc(OC)c(OC)c3OC)C2=O)cc1", "Potency": "inconclusive: 7.94 µM [inhibitor, full curve]"}
{"smiles": "COc1cc2c3cc1Oc1cc(ccc1O)C[C@@H]1c4c(cc(OC)c(O)c4Oc4ccc(cc4)C[C@H]3N(C)CC2)CCN1C", "Potency": "inconclusive: 14.1 µM [inhibitor, partial curve]"}
{"smiles": "Cc1cc(NC(=O)c2cccn(Cc3ccccc3)c2=O)no1", "activity, negative = inhibition": "inactive: -11.2%"}
{"smiles": "CCC(=NCc1ccco1)c1c(O)[nH]c(=O)[nH]c1=O", "activity, negative = inhibition": "inactive: -1.71%"}
{"smiles": "CN1CCc2nc(CO)c(CO)cc2C1", "activity, negative = inhibition": "inactive: -7.16% [at 11.5 µM]"}
{"smiles": "CC(N)[C@H](O)c1ccc(O)c(O)c1", "note": "(some centres undefined)", "Potency": "active: 3.55 µM"}
{"smiles": "CC1(C)C(=O)C=C[C@@]2(C)C1=C(O)C(=O)[C@@]1(C)C2CC[C@@]2(C)C(c3ccoc3)C[C@H]3O[C@@]321", "note": "(some centres undefined)", "Potency": "inconclusive: 39.8 µM [inhibitor, single point]"}
{"smiles": "CC(=NCCCN1CCOCC1)c1c(O)n(-c2ccccc2C)c(=O)[nH]c1=O", "activity, negative = inhibition": "inactive: -12.6%"}
{"smiles": "CC(C)(C)n1cccc1/C=C1\\C(=O)NC(=O)N(c2ccccc2)C1=O", "Potency": "inconclusive: 14.1 µM [inhibitor, partial curve, poor fit]"}
{"smiles": "Cn1c(O)c(C(=O)c2ccccc2F)c(=O)n(C)c1=O", "Potency": "inconclusive: 35.5 µM [inhibitor, single point]"}
{"smiles": "CN1CCCCC1c1ccc(-c2cccnc2)nc1", "note": "(centres undefined)", "Potency": "inactive"}
{"smiles": "CC1(C)C[C@H]2C=C(C=O)[C@]3(C=O)C[C@]3(C)[C@H]2C1", "Potency": "active: 14.1 µM"}
{"smiles": "O=c1[nH]c(=O)n(C2CCCCC2)c(O)c1C1NCCc2ccccc21", "note": "(centres undefined)", "Potency": "inconclusive: 10 µM [inhibitor, partial curve]"}
{"smiles": "CN1CCN(c2ccc([N+](=O)[O-])c3no[n+]([O-])c23)CC1", "Potency": "active: 12.6 µM"}
{"smiles": "Clc1cccc(N2CCNCC2)c1", "Potency": "inactive"}
{"smiles": "O=C(COC(=O)CCc1c[nH]c2ccccc12)Nc1ccc([N+](=O)[O-])cc1", "Potency": "inconclusive: 2.51 µM [inhibitor, full curve]"}
{"smiles": "Cc1c(C(=O)O)cccc1-n1c(C)cc(/C=C2\\C(=O)NC(=O)N(c3ccc4c(c3)OCO4)C2=O)c1C", "Potency": "inconclusive: 28.2 µM [inhibitor, single point]"}
